# In patent US20240417437A1, “Linker Polypeptides” (Trutino Biosciences Inc., priority 2021, published 2024):
# Columns and labels:
# [1] = format: binding; conditions: vs. Construct AAA and Construct NNN, respectively
# Procedure: 96-well plates were coated with 10 μg/mL of Heparin-BSA conjugate (provided by Dr. Mueller, Boerhinger Ingelheim) or control BSA for 18-22 hours at room temperature on shaker (350 rpm). After washing, wells are blocked with 2% milk powder in PBS-0.05% Tween 20 or PBS-0.05% Tween 20/1% BSA for 90 minutes. The fusion proteins were then titrated in either 2% milk powder in PBS-0.05% Tween 20 or 1% BSA/PBS-0.05% Tween 20, pH 7.5 and/or pH 6, and added for 2 hours at room temperature with shaking. After washing, an anti-mouse IL-2 biotin-labelled detection antibody (JES6-5H4, ThermoFisher), anti-6×-His Tag HRP conjugate antibody (Invitrogen, 1 mg/mL, cat #MA1-21315-HRP), or anti-human IgG HRP conjugate antibody (SouthernBiotech) was added, and binding was detected using Ultra Streptavidin HRP (ThermoFisher). The plate was developed by adding the chromogenic tetramethylbenzidine substrate (Ultra TMB, ThermoFisher). The reaction was stopped by addition of 0.5 M H2SO4, and the absorbance was read at 450-650 nm. […] Moreover, when the same pH-dependent heparin binding motif was inserted into different locations of IL-2 fusion proteins, all resulting proteins bound heparin at pH 6 with similar high affinities (FIGS. 4F and 4G). Likewise, similar binding affinities were observed when another heparin targeting sequence was engineered into different sites of IL-2 fusion proteins (FIGS. 4H-4I). […]
# [2] = tested on: MC38 colorectal cancer cells; assay: MC38 colorectal cancer tumor growth inhibition study; format: in vivo, C57BL/6 mice; conditions: low dose (1 mg/kg IP BIW)
# Procedure: C57BL/6 mice were subcutaneously inoculated with MC38 colorectal cancer cells. When the average tumor volume reached 70-90 mm^3, animals were randomized into 10 groups based on tumor volumes (n 7 or 6 mice per treatment group).
# Tumor volumes were measured twice a week for the duration of the study.
molecule,measurement,setting,value
"Construct EEE (protein, Synthetic: Construct EEE) [about 150 residues not written out]VRIQRKKEKMKETGPLGVRGGGGGSGGGGSELCDDDPPEIPHATFKAMAYKEGTILNCECKRGFRRIKSGSLYMLCTGNSSHSSWDNQCQCTSSATRNTTKQVTPQPEEQKERKTTEMQSPMQPVDQASLPGHCREPPPWENEATERIYHFVVGQMVYYQCVQGYRALHRGPAESVCKMTHGKTRWTQPQLICTGEMETSQFPGEEKPQASPEGRPESETSCLVTTTDFQIQTEMAATMETSIFTTEYQGSGGGG[human IgG1 Fc with changes not written out]",enhanced binding to heparin in vitro compared to constructs lacking a heparin binding site,[1],about 30 fold
same,efficacy (TGI) in low dose treatment groups,[2],superior efficacy over parental non-targeting constructs
"Construct NNNN: linker polypeptide-IL-2 fusion protein engineered with a heparin binding site; compared with Construct NNN (protein, Synthetic: Construct NNNN; HuIL2(C125S)-vRIQRKKEKMKET-MMPcs1_(G4S)x2-hu IL2Ra([…]; M25I)-GSGGGG- hu IgG1Fc- GGSGKLWvLPK, compared with Construct NNN) [about 150 residues not written out]VRIQRKKEKMKETGPLGVRGGGGGSGGGGSELCDDDPPEIPHATFKAMAYKEGTILNCECKRGFRRIKSGSLYMLCTGNSSHSSWDNQCQCTSSATRNTTKQVTPQPEEQKERKTTEMQSPMQPVDQASLPGHCREPPPWENEATERIYHFVVGQMVYYQCVQGYRALHRGPAESVCKMTHGKTRWTQPQLICTGEMETSQFPGEEKPQASPEGRPESETSCLVTTTDFQIQTEMAATMETSIFTTEYQGSGGGGDKTHTCPPCPAPEAAGGPSVFLFPPKPKDTLMISRTPEVTCVVVDVSHEDPEVKFNWYVDGVEVHNAKTKPREEQYNSTYRVVSVLTVLHQDWLNGKEYKCKVSNKALGAPIEKTISKAKGQPREPQVYTLPPSRDELTKNQVSLTCLVKGFYPSDIAVEWESNGQPENNYKTTPPVLDSDGSFFLYSKLTVDKSRWQQGNVFSCSVMHEALHNHYTQKSLSLSPGGGSGKLWVLPK",enhanced binding to heparin in vitro compared to constructs lacking a heparin binding site,[1],about 30 fold
